Data: PubChem BioAssay AID651820 (National Center for Advancing Translational Sciences (NCATS), 2012)
Out of some 340,000 compounds screened, about 12,000 (3.5%) were called active. This list was built around the results that the source calls inconclusive (neither active nor inactive); the mix of calls is not that of the screen. Calls come from the whole dose curve; as a rule, active = well fitted inhibition curve with a large enough effect; inconclusive = small, poorly fitted or top-dose-only effect, or another doubt; inactive = no such curve, though single readings can be large or run the other way. Potencies of inconclusive entries are left out as doubtful fits.
% is set by controls: 0 for no effect and ±100 for the full control effect; potency is the fitted concentration of half-maximal effect; tags give direction and shape of the fitted curve.

Assay: qHTS Assay for Inhibitors of Hepatitis C Virus (HCV)
Settings: Huh7.5.1 HCVcc-Cre (HCVcc is cell-culture hepatitis C virus) infection, luciferase reporter, 44 h; activity change, negative = inhibition: at 41.8 µM (top of the series) unless noted
In short: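 Reporter virus HCVcc-Cre (~0.5 moi) infects cells exposed to compound; seeding density 1,000 cells/well with 4 h settling beforehand. Luminescence, 15 sec read, taken 44 h post-infection following a 15 min RT substrate incubation.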
With `CCN(CC)S(=O)(=O)c1ccc(Cl)c(NC(=O)COC(=O)c2cccn2C)c1` the Potency was active: 5.62 µM.
With `Oc1ccc(C[C@H]2NCCc3cc(O)c(O)cc32)cc1O` the “activity change, negative = inhibition” value was inactive: 21.9%.
In the case of `Cc1cc2cc(CNC(=O)c3cccc([N+](=O)[O-])c3)ccc2[nH]1`, the “activity change, negative = inhibition” value is reported as inactive: -20.9%.
In the case of `COc1ccc(N2CCN(C(=O)c3oc4ccccc4c3NC(=O)CCc3cc(OC)no3)CC2)cc1`, the Potency is reported as inconclusive [inhibitor, single point].
With `COc1ccccc1N(C)S(=O)(=O)c1ccc(C(=O)Nc2ccc3nc(C)sc3c2)cc1` the Potency was inconclusive [inhibitor, single point].
With `COc1ccc(/C=N/Nc2ncnc3c2[nH]c2ccc(C)cc23)c(OC)c1OC` the Potency was inconclusive [inhibitor, partial curve].
In the case of `CC1(C)CC(=O)C=C(CN2C(=O)c3ccccc3C2=O)C1=O`, the “activity change, negative = inhibition” value is reported as inactive: -15%.
In the case of `Cc1ccc2c(c1)-n1c(nc3cc(Cl)ccc3c1=O)C(Cc1ccccc1)NC2=O` (configuration not stated), the Potency is reported as inconclusive [inhibitor, single point].
With `CCOC(=O)c1c(C)oc2ccc(OCC(=O)C(C)(C)C)cc12` the Potency was inconclusive [inhibitor, single point].
In the case of `CC(C)C(=O)NC(=S)Nc1ccc(CN2CCOCC2)cc1`, the “activity change, negative = inhibition” value is reported as inactive: 11.6%.
In the case of `Cc1ccc(Cl)cc1N1CCN(C(=O)CCC(=O)O)CC1`, the “activity change, negative = inhibition” value is reported as inactive: 6.14%.
For `CC(C)CC(=O)N1CCN(Cc2cccc([N+](=O)[O-])c2)CC1`, the “activity change, negative = inhibition” value was inactive: 6.12%.
In the case of `CC(C)=CC(O)C/C(C)=C/COc1ccc2ccc(=O)oc2c1` (configuration not stated), the Potency is reported as inconclusive [inhibitor, full curve].
In the case of `CC(=O)c1c(C)oc2c1cc(NS(=O)(=O)c1ccc(C(=O)O)cc1)c1ccccc12`, the Potency is reported as inconclusive [inhibitor, single point].
In the case of `CC1CCc2c(sc(NC(=O)CSc3ncn[nH]3)c2C#N)C1` (configuration not stated), the Potency is reported as active: 11.2 µM.
For `CCN(CC)CCNCC(=O)N1c2ccccc2CCc2ccc(NC(=O)OC)cc21`, the “activity change, negative = inhibition” value was inactive: 4.87%.
With `Cc1ccc(C)c(NC(=O)C2C(c3ccccc3)C2(Cl)Cl)c1` (configuration not stated) the Potency was inconclusive [inhibitor, single point].
With `C=CCN(C(=O)Cn1nc(C)n2c(cc3cc(C)ccc32)c1=O)c1ccccc1` the Potency was inconclusive [inhibitor, single point].
For `CCOc1ccc2nc(NC(=O)Nc3ccccc3)sc2c1`, the Potency was inconclusive [inhibitor, partial curve].
With `O=S(=O)(c1ccc(F)cc1)N1CCN(CC(O)COCC2CCCO2)CC1` (configuration not stated) the Potency was inconclusive [inhibitor, single point].
In the case of `CN(c1ccc(C(=O)Nc2ccc(F)cc2F)cc1)S(=O)(=O)c1ccccc1`, the Potency is reported as inconclusive [inhibitor, partial curve].
In the case of `Cc1nn(-c2cc(Cl)ccc2Cl)c(C)c1C(=O)O`, the “activity change, negative = inhibition” value is reported as inactive: 16.4%.
With `COCCn1c(=O)[nH]c2cc(C(=O)N3CCN(c4ccccc4)CC3)ccc2c1=O` the Potency was inconclusive [inhibitor, single point].
With `COc1ccc(NC(=O)CSc2nc3sc(C)cc3c(=O)n2C)c(OC)c1` the Potency was inconclusive [inhibitor, partial curve].
For `CCOc1ccc(CCNC(=O)c2cc3sc(Cl)cc3n2C)cc1OCC`, the Potency was active: 7.08 µM.
For `O=C(COc1ncnc2ccccc12)NCCC1=CCCCC1`, the “activity change, negative = inhibition” value was inactive: 3.35%.
For `COc1ccc(S[C@@H](CCN2CC[C@H](C)CCC2=O)c2ccccc2)cc1`, the Potency was inconclusive [inhibitor, single point].
With `Cc1c(N=C2NC(=O)/C(=C/c3cccc([N+](=O)[O-])c3)S2)c(=O)n(-c2ccccc2)n1C` the “activity change, negative = inhibition” value was inactive: 7.83%.
In the case of `CCOc1ccccc1N(CC(=O)NCc1ccc(OC)cc1)S(C)(=O)=O`, the “activity change, negative = inhibition” value is reported as inactive: 4.72%.
For `CN(Cc1ccccc1)C(=O)COC(=O)c1ccccc1SCC(=O)N1CCCC1`, the “activity change, negative = inhibition” value was inactive: 5.33%.
For `c1ccc(OCCN2C3=NCCN3c3ccccc32)cc1`, the Potency was inconclusive [inhibitor, single point].
In the case of `O=C(Nn1cc(C(=O)Nc2ccc(F)cc2F)c2ccccc2c1=O)c1cnccn1`, the Potency is reported as inconclusive [inhibitor, partial curve].
With `CC(=O)/C(=N/Nc1ccc(C)cc1)Sc1nnc(CCc2ccccc2)n1-c1ccccc1` the “activity change, negative = inhibition” value was inactive: 10.7%.
For `COc1ccc(C(=O)NC2CCC(O)CC2)cc1S(=O)(=O)NCc1ccc(Cl)cc1` (configuration not stated), the Potency was inconclusive [inhibitor, partial curve].
In the case of `O=C(Nc1ccccc1Br)c1cccc2ccccc12`, the Potency is reported as inconclusive [inhibitor, full curve, poor fit].
In the case of `Cc1ccc(C)c(N2CCN(C(=O)CCC(=O)N3CCOc4ccc(Cl)cc43)CC2)c1`, the Potency is reported as active: 10 µM.
In the case of `COC(=O)c1sccc1NC(=O)CSc1ccc(Cl)cc1`, the Potency is reported as inconclusive [inhibitor, single point].
For `COc1ccc([C@H]2CC(=O)C=C(c3ccc(Oc4ccccc4)cc3)C2)cc1OC`, the Potency was active: 5.62 µM.
With `N#Cc1ccc(C(=O)N/N=C/c2cn(CC(=O)O)c3ccccc23)c(F)c1` the Potency was inconclusive [inhibitor, single point].
In the case of `CCOC(=O)C1=Nc2ccccc2C1=[N+]=[N-]`, the Potency is reported as inconclusive [inhibitor, full curve].
With `Cc1cc(S(=O)(=O)NCCN2CCOCC2)c(C)s1` the “activity change, negative = inhibition” value was inactive: 11.1%.
For `O=C(COc1ccccc1Br)NCCC1=CCCCC1`, the Potency was inconclusive [inhibitor, single point].
With `CCN(CC)S(=O)(=O)c1cccc(NC(=O)c2ccc(-n3nc(C)cc3C)cc2)c1` the Potency was active: 2.51 µM.
With `COc1cccc(NS(=O)(=O)c2ccc(C)c(C(=O)N3CCCCC3)c2)c1` the Potency was inconclusive [inhibitor, single point].
For `COc1ccc([C@H]2CC(=O)C=C(c3ccc(C)c(F)c3)C2)cc1`, the Potency was inconclusive [inhibitor, partial curve].
For `Cc1cc(C(=O)Nc2ccc(Cl)cc2)c(C)n1-c1ccccc1`, the “activity change, negative = inhibition” value was inactive: -23.4%.
For `CCOC(=O)CSc1nc2nc(C)cc(C)n2n1`, the “activity change, negative = inhibition” value was inactive: 13.5%.
